The campaign covered roughly 45,000 compounds. About 65 (0.1%) were called active. Calls follow the shape of the dose curve; as a rule, active = well fitted activation curve with a large enough effect; inconclusive = small, poorly fitted or top-dose-only effect; inactive = no such curve, though single readings can be large or run the other way. The list shows a part of the results.
Target: Galactocerebrosidase (Homo sapiens) (UniProt P54803)
Experiment: A Novel Cell-Based Assay to Identify Small Molecules for B -Galactocerebrosidase; also: 0% is about no effect; nearly all actives have a fitted effect of over 65% in size
Conditions: 145M-Twi-hGALC-G270D cells (Twitcher mouse brain line with human GALC G270D), HMU-beta-Gal fluorescence, 48 h; series mostly up to 57.5 µM; activation: at the top concentration
In short: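 Brain-derived Twitcher mouse 145M-Twi cells stably expressing human GALC-G270D or wild-type GALC, treated live, then residual GALC activity read by fluorescence of HMU-b-Gal substrate (0.1 mM final) in citrate-phosphate buffer pH 5.2 with sodium taurocholate. Signal increase indicates enhancement.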

UniProt P54803, sequence (P54803 whole entry, looked up): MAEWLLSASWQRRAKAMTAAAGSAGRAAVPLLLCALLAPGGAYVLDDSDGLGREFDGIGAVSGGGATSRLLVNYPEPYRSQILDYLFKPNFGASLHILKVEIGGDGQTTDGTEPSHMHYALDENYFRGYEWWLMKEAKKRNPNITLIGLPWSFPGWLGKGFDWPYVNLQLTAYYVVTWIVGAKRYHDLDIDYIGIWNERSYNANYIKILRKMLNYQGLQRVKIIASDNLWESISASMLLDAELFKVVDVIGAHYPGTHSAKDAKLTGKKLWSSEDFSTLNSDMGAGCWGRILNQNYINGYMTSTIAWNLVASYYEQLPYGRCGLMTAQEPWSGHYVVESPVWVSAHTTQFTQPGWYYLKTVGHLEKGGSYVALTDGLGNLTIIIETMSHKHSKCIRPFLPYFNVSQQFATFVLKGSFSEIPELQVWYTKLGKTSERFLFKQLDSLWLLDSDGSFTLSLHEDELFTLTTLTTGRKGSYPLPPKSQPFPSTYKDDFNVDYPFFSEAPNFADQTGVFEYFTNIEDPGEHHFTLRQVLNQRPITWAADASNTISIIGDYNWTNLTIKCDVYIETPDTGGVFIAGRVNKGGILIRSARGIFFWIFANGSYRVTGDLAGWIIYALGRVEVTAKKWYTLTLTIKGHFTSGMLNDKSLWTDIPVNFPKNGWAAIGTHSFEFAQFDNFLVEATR

activation, inactive:
Cc1cccc(CNS(=O)(=O)c2ccc(-c3cnc(C4CC4)o3)cc2)c1 -18.4%
CCCc1cc(=O)n2[nH]c(NC(=O)c3ccc(C(C)(C)C)cc3)nc2n1 -1.54%
COc1cc(NC(=O)C2CCN(c3cnc4ccccc4n3)CC2)cc(OC)c1OC -22.9%
CC(=O)c1cccc(NC(=O)CN2C=NS(=O)(=O)c3ccc(C)cc32)c1 -9.88%
Cc1ccc(CNC(=O)COCc2cc(-c3cccs3)on2)cc1 -9.23%
COc1ccc(C(=O)Nc2nc3nc(C)c(Cc4ccccc4)c(=O)n3[nH]2)cc1OC -15.4%
CCOc1ccc(CNC(=O)C2CCN(S(=O)(=O)N3CCC(C)CC3)CC2)cc1OC -7.08%
CC1=C(C(=O)Nc2cccnc2)C(c2cccc(Br)c2)n2nc(SCc3ccccc3)nc2N1 (configuration not stated) -7.7%
Cc1cccc(-c2noc(-c3ccccc3NC(=O)C3CC(=O)N(c4ccccc4C)C3)n2)c1 (configuration not stated) 1.88%
Cn1ccc2cc(S(=O)(=O)N3CCCC(C(=O)NCc4ccccc4)C3)ccc21 (configuration not stated) -2.35%
CCn1c(=O)c2cc(C(=O)Nc3cc(OC)c(OC)c(OC)c3)sc2c2ccccc21 -4.52%
CC1=C(C(=O)Nc2ccccc2C)C(c2ccncc2)n2nc(SCc3ccccc3Cl)nc2N1 (configuration not stated) 3.43%
COc1ccc(NC(=O)CCSc2nc(-c3ccc(OC)cc3)cc(C(F)(F)F)n2)cc1 13.9%
O=C(NCCS(=O)(=O)N1CCN(c2ccccc2)CC1)C1CC(=O)N(c2ccc(F)cc2)C1 (configuration not stated) -10.6%
O=C(COc1ccc(F)cc1)OCc1cc(=O)n2nc(C3CCCCC3)sc2n1 -13.7%
Cc1cc(-c2ccc(C)c(S(=O)(=O)NC(c3cccs3)C(C)C)c2)on1 (configuration not stated) -27.9%
CC1=C(C(=O)N2CCN(c3cc(C)ccc3C)CC2)C2(CCC(C)CC2)OC1=O (configuration not stated) -3.93%
COc1ccc(C(C(=O)NCc2ccccc2)N(C(=O)Cn2nnc3ccccc32)c2cccc(OC)c2)cc1 (configuration not stated) -11.1%
CCc1nnc(SCc2c(F)cccc2Cl)c2cc3sccc3n12 -9.1%
CC(C)CCNC(=O)c1ccc2c(c1)NC(=O)C(CS(=O)(=O)Cc1ccc(F)cc1)N2 (configuration not stated) -11.4%
Cc1ccc(NC(=O)Cn2cc(C(=O)C3CC3)c3ccccc32)c(C)c1 -8.64%
O=c1oc2c(CN3CCN(CCO)CC3)c(O)ccc2cc1-c1ccccc1 -23.1%
COc1ccc(Cn2ccc3nc(C)c(C(=O)NCc4ccc(F)cc4)cc3c2=O)cc1 -6.79%
Cc1ccc2c(=O)cc(C(=O)Nc3sc4c(c3C(=O)NCc3cccnc3)CCCC4)oc2c1C -14.1%
Fc1ccc(-c2noc3ncnc(NCCCN4CCN(c5ccccc5)CC4)c23)cc1 2.18%
CCc1cc(C(=O)Nc2cnn(Cc3ccccc3C)c2)no1 -21.2%
COc1ccc(S(=O)(=O)NCC(c2ccco2)N2CCOCC2)cc1OC (configuration not stated) -0.669%
COc1ccc(-c2nc3c(C#N)c[nH]n3c2NC2CCCC2)c(OC)c1 -17.8%
Cc1ccc(NC(=O)CCc2c(C)nc3cc(-c4ccccc4)nn3c2C)cc1F -11.1%
COc1cccc(NC(=O)CC2NCCNC2=O)c1 (configuration not stated) -2.89%
COc1ccc(C(=O)NCC(c2ccc(N(C)C)cc2)N2CCc3ccccc32)c(OC)c1 (configuration not stated) -19.6%
CCn1cc(C(=O)OCC(=O)Nc2cccc(C(C)=O)c2)c(=O)c2ccc(C)nc21 27.7%
OCCN1C[C@H](O)[C@@H](O)[C@H](O)[C@H]1CO -7.17%
CCOc1ccc(C2CC(=O)Nc3c2c(=O)nc(SCc2ccccc2C)n3C)cc1OC (configuration not stated) -12.7%
CCOC(=O)c1c(S(=O)(=O)N2CCCC(C(=O)Nc3cccc(C)n3)C2)c(C)n(C)c1C (configuration not stated) -16.3%
COc1ccc(Cn2c(=O)c3oc4ccccc4c3n(Cc3ccc(Cl)cc3)c2=O)cc1 -4.6%
COCCCNc1oc(-c2ccc(COc3ccc(Cl)cc3)o2)nc1C#N -10.4%
O=C(Nc1sc2c(c1C(=O)NCC1CCCO1)CCC2)c1cc(=O)c2ccccc2o1 (configuration not stated) -17.7%
COc1ccc(CNC(=O)C2CCN(c3nc4ccccc4[nH]3)CC2)cc1OC -16.8%
CCCCCNC(=O)CCCCCn1c(=O)[nH]c2ccsc2c1=O -12.4%
Cc1ccc(NC(=O)CSc2nnc3scc(-c4ccccc4)n23)cc1 -12.9%
COC(=O)c1ccc(OCC2c3cc(OC)c(OC)cc3CCN2C(=O)c2ccc(F)cc2)cc1 (configuration not stated) -20.2%
O=C(Cn1nnc(-c2ccccc2Cl)n1)Nc1ccc(Br)cc1 -20.1%
CCOCCc1nn2c(=O)cc(COC(=O)C3CCCCC3)nc2s1 -9.83%
CCOC(=O)c1c(C)[nH]c(C)c1S(=O)(=O)N1CCCC(C(=O)N2CCN(c3ccccc3)CC2)C1 (configuration not stated) -16.8%
Cc1cccn2c(=O)c3cc(C(=O)NC(C)c4ccccc4)c(=N)n(CCCO)c3nc12 (configuration not stated) 3.05%
Cc1ccc2c(=O)cc(C(=O)Nc3cccc(C(F)(F)F)c3)oc2c1C -8.8%
CCOc1ccc(CN2CCc3nc(Nc4ccc(OC)cc4OC)ncc3C2)cc1 -15.6%
O=C(NCCCN1CCN(c2ccc(F)cc2)CC1)c1ccc2nc(Cc3ccccc3)oc2c1 -14.3%
O=[N+]([O-])c1ccc(/C=N\O)o1 -16.1%
CCSC1=NC2(CCN(C(=O)NC3CCCCC3)CC2)N=C1c1ccc(Cl)cc1 -27.4%
CCC(=O)Nc1cccc(C(=O)OCc2cc(=O)n3nc(CC)sc3n2)c1 -6.34%
Cc1ccccc1Cn1c(CN2CCC(C(=O)NCCc3ccccc3)CC2)cc2ccccc21 2.07%
CCN(CC)CCCNC(=O)c1nn(C)c2c1CS(=O)(=O)c1ccccc1-2 -4.34%
COc1ccc2c(c1)c1c(c(=O)n(CCc3ccccc3)c(=O)n1Cc1ccc(F)cc1)n2C -4.77%
COc1ccc(NC(=O)c2c(-c3ccc(C)cc3)nnc3ccccc23)c(OC)c1 1.92%
CCN(CC)c1nc2ccccc2nc1C(=O)Nc1cccc(C(C)=O)c1 -21.2%
Cc1ccc2sc(NC(=O)c3ccc4c(c3)OCCO4)nc2c1C -3.35%
COc1ccc2c(c1)c1c(c(=O)n(-c3ccc(F)c(Cl)c3)c(=O)n1Cc1ccccc1C)n2C 3.7%
Cc1oc2ncn(C)c(=O)c2c1C(=O)N1CCN(c2ccccc2F)CC1 -11.8%
CCN1C(=O)c2ccccc2Sc2ccc(NC(=O)c3ccc(Cl)cc3)cc21 -17.3%
Cc1ccc(NC(=O)c2sc3nc4c(cc3c2N)CN(Cc2ccccc2)CC4)cc1 1.15%
Cc1cccc(NS(=O)(=O)c2ccc3c(c2)C(C)(C)C(=O)N3C)c1 -14.5%
CCc1nn(Cc2ccc(Cl)cc2)c(=O)c2cc3cc(C)ccc3n12 0.103%
Cc1cccc(-c2nc3c4ccccc4nc(N4CCN(c5cc(C)ccc5C)CC4)n3n2)c1 -4.23%
Cc1cccc(N2CCN(C(=O)CCn3c(=O)c4cccn4c4cccnc43)CC2C)c1 (configuration not stated) -3.65%
O=C(Nc1cccc(Cl)c1)c1cc2c(=O)[nH]c3ccccc3c2s1 -10.3%
COc1cccc(C(=O)Nc2cccc(-c3cn4c(C)csc4n3)c2)c1OC -10%
CCOc1ccc(-c2nn(CC(=O)NC3CCCC3)c3c2cnc2ccc(F)cc23)cc1 -15.2%
CCc1ccccc1NC(=O)c1cnc2sc(N3CCCC3)nn2c1=O 1.6%
O=C(Nc1ccc(-c2cn3cccnc3n2)cc1)c1cc(Br)ccc1Cl 4.19%
Cc1nnc(N2CCCC(C(=O)NCCc3ccc(Cl)cc3)C2)c2nn(-c3ccccc3)c(C)c12 (configuration not stated) -5.05%
CC1=C(C(=O)Nc2ccc(C)cc2C)C(c2cccs2)n2nc(SCc3ccccc3Cl)nc2N1 (configuration not stated) -10.3%
COc1ccc(CN2C(=O)c3ccccc3C2C(=O)NCCc2ccccc2)c(OC)c1 (configuration not stated) -9.8%
CC(C)CCNC(=O)CN1N=C(c2ccc(Cl)cc2)CCC1=O -2.76%
CC(=O)OCC[N+](C)(C)C -16.9%
COc1cccc(N2CCN(C(=O)Cn3c(-c4cccs4)cc4ccccc43)CC2)c1 -0.243%
COc1ccc(CNc2oc(-c3ccc(COc4ccccc4C)o3)nc2C#N)cc1 -14.2%
Cc1ccc(-c2nc(C)c(CCNS(=O)(=O)c3ccc(F)c(C(F)(F)F)c3)s2)cc1 0.93%
O=C(Nc1cccc(C(F)(F)F)c1)c1cc2ccc3cccnc3c2[nH]1 -11.8%
CCn1cc(C(=O)N2CCN(c3ccccc3F)CC2)c(=O)c2cc(S(=O)(=O)N(C)C)ccc21 -19.7%
CCOC(=O)c1c(C)[nH]c(CCC(=O)NCc2ccc(N(C)C)cc2)c1C -36.6%
Cc1cn2c(=O)cc(COC(=O)COc3ccccc3C)nc2s1 0.437%
O=c1cc(-c2ccccc2)n2c(SCc3ccc(F)cc3)nnc2[nH]1 -37.7%
O=c1oc2ccccc2cc1-c1cn2cc(Cc3ccc(Cl)cc3)sc2n1 -12%
CCN(Cc1ccccc1)C(=O)Cn1c(=O)n(-c2ccc(C)c(C)c2)c(=O)c2c(C)c(C)sc21 0.862%
Cc1ccc(NC(=O)CN2C(=O)CCSc3ccc(S(=O)(=O)N4CCCC4)cc32)cc1C -16.8%
Cc1ccc(NC(=O)CSc2nc(-c3ccco3)cc(C(F)(F)F)n2)cc1 -5.69%
CC1=C(c2ccc(C)cc2)S(=O)(=O)NC1=NCCCN1CCN(c2ccc(F)cc2)CC1 -9.33%
Cc1ccc(C)c(OC(=O)CSc2nnc(CNC(=O)c3ccccc3)o2)c1 -15.6%
COC(=O)c1ccc(C2C(C(=O)Nc3ccccc3)=C(C)Nc3nc4ccccc4n32)cc1 (configuration not stated) -4.42%
CCCSc1ncc(Cl)c(C(=O)Nc2c(C(=O)Nc3ccc(C)cc3)oc3ccccc23)n1 -3.37%
CC(=O)N1CCc2c(sc3nc(SCC(C)C)n(-c4ccc(F)c(Cl)c4)c(=O)c23)C1 -1.17%
CCc1nc(Oc2cccc(F)c2)c2oc3ccccc3c2n1 -11.8%
CCN(CC)c1ccc(NS(=O)(=O)c2cc3[nH]c(=O)c(=O)[nH]c3cc2C)c(C)c1 -8.23%
Cc1cc2oc(C(=O)Nc3ccc(S(=O)(=O)N4CCCCCC4)cc3)cc(=O)c2cc1C -15.7%
Cc1ccc(NC(=O)Nc2nnc(N(C)Cc3ccccc3)s2)c(C)c1 -9.23%
